Source: the supplement of paper PMC10338343
± gives the standard deviation. The entries are a selection whose mix differs from that of the whole data set.

These sequences were tested on MIWI (PIWIL1) piRISC loaded with L1MC piRNA (30 nt) (assay: pre-steady-state target cleavage rate (min^-1); MIWI and MILI are mouse PIWI proteins and EfPiwi is from a freshwater sponge; tags in brackets are library labels; higher = faster piRNA-guided slicing of the target). Details: guide: L1MC piRNA 5'p-UAACUAAAUACUAUGCAAGCUGUAGGUCCU; auxiliary factor: none (no GTSF1).
Outline: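 The pre-steady-state cleavage rate came from a burst-and-steady-state fit to pooled data from three Cleave-'n-Seq trials, in which uncleaved targets were sequenced and normalised to depth and to weakly complementary targets. Each reaction held 0.1 nM transcribed, DNA-blocked target RNA library and 1 nM active affinity-purified piRISC carrying one synthetic guide, with or without 500 nM GTSF1 partner protein, in HEPES–potassium acetate buffer at 33 °C for 0–8 or 0–960 min. k3 was capped at 0.0001 min^-1.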

Row | Sequence | pre-steady-state target cleavage rate
1 | UGGACCUACAGCUUGCAUACUAUUAAGUUA | 0.0113 ± 0.0029
2 | UCCUGGAUCAGCUUGCUUAGUAUUUUGUUA | 0.0112 ± 0.0038
3 | UCCUGCUACAGCUUGAUAGUAUUUAGUUA | 0.00577 ± 0.0023
4 | UGGACCUACAGCUUGCAAAGUAUUUACUUA | 0.0205 ± 0.0043
5 | UCCUGGAUGAGCAUGCAUAGAAUUUAGUUA | 0.0051 ± 0.0024
6 | UCCAGCUACAGCUUGCAUAGUAUUUAGAAA | 0.00449 ± 0.0021
7 | UCCUGGUACAGCUUGCAUAGUAUUUUGUUA | 0.0356 ± 0.0063
8 | UCCUGGUACUGCUUGCAUAGUAUUAAGUUA | 0.0113 ± 0.0027
9 | UCCUCCUACAGCUUGCAUAGUAUUUACGUUA | 0.0415 ± 0.007
10 | UCCUGCUACAGCUUGCAUAGCAUUUAGUUA | 0.0302 ± 0.0054
11 | AGGACCUACAGUUGCAUAGUAUUUAGUUA | 0.0102 ± 0.0034
12 | UCCUCCAUACAGCUUGCAUAGUAUUUAGUUA | 0.0335 ± 0.0051
13 | UCCUCCUACAGCUUGCAUAGUAUUAAGAUA | 0.00327 ± 0.0025
14 | UGCGACCUACAGCUUGCAUAGUAUUUAGUUA | 0.0975 ± 0.02
15 | UCCUGGUACAGCUUGCAUAGUAUUAUCUUA | 0.00345 ± 0.0034
16 | UCCUGGAUGAGCUUGCAUAGUAUUUAGGUUA | 0.0295 ± 0.0066
17 | AGGACCUACAGCUUGCAUAGUAUUUAGUA | 0.0502 ± 0.014
18 | UCCUGGAUCAGCUUGCAAAGUAUUUACAAA | 0.00355 ± 0.0026
19 | UCCUGGAACAGCUUGCUUAGUUUUUAGUUA | 0.0251 ± 0.0074
20 | AGGACCUACAGCUUGAAUAGUAUUUAGUUA | 0.0532 ± 0.01

Row | Sequence | pre-steady-state target cleavage rate
21 | UCCUGGAUGUGCUUGCAUAGUAAUUAGAUA | 0.00409 ± 0.0025
22 | UCCUGGAUGUUCUUGCAUAGUAUUUAGUUA | 0.0206 ± 0.0051
23 | UCCUCCUACUCCUUGCAUAGUAUUUAGUAA | 0.0149 ± 0.0024
24 | AGGACCUACUCGUUGCAUAGUAUUUACAAA | 0.00275 ± 0.0017
25 | UCCUGGAUCAGCUUGCAUAGUAUAAUGAAA | 0.00385 ± 0.0031
26 | UCCUCCUACGAGCUUGCAUAGUAUUUAGUUA | 0.0316 ± 0.0069
27 | UCGACGUACAGCUUGCAUAGUAUUUACAAA | 0.00459 ± 0.0019
28 | UCCUCCUACAGCUUGCAUAGUAUUUUGAUA | 0.00857 ± 0.0036
29 | UGGACCUACUGCUUGGAUAGUAUUUAGUUA | 0.0542 ± 0.0088
30 | UCCUGGAUGUGCUAGCAUAGUAUUUUGUUA | 0.00694 ± 0.003
31 | UCCUGGAUGUGCUUGCUUAGUAAUUAGUUA | 0.00427 ± 0.0028
32 | AGGUCCUACAGCUUGCAUAGUAUUUAGAUA | 0.0483 ± 0.012
33 | UCGACCUACAGCUAGCAUAGAAUUUAGUUA | 0.00737 ± 0.0036
34 | UCCUGGAUCAGCAUGCAUAGUAUAUAGUUA | 0.00638 ± 0.0021
35 | UCCUCCUACUGCUUGCAUACUAUUUAGUUA | 0.0335 ± 0.0063
36 | UCCUGGAUAAGCUUGCAUAGUAUUUAGUUA | 0.0705 ± 0.015
37 | UGGACCUACAGCGUUGCAUAGUAUUUAGUUA | 0.0647 ± 0.013
38 | UCGACCUAGAGCUUGCAUAGUUUUUAGUUA | 0.0184 ± 0.0035
39 | UCCACCUAGAGCUUGCAUAGUAUUUUGUUA | 0.0301 ± 0.0047
40 | UCCUGGAUCUCGUUGCAUAGUAUUUAGUAA | 0.00329 ± 0.0021
